# In all, about 360,000 compounds went through this assay and about 7,500 (2.1%) were called active. Inconclusive results, whose numbers are uncertain, are shown with a selection of clear calls. Calls follow the shape of the dose curve; as a rule, active = well fitted cell-killing curve with a large enough effect; inconclusive = small, poorly fitted or top-dose-only effect, or effect the other way, or another doubt; inactive = no such curve, though single readings can be large or run the other way. No potency is given beside an inconclusive call; the fits are too rough.
# Experiment: qHTS for induction of synthetic lethality in tumor cells producing 2HG: qHTS for the HT-1080-IDH1KD cell line;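 as to activity, negative = toxicity: 0% = DMSO wells and -100% = cell-free medium wells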
# Conditions: HT-1080 IDH1 knockdown viability, ATP luminescence, 48 h; activity, negative = toxicity: at 46.1 µM (top of the series) unless noted
# In short: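 Assay cells: HT-1080 with IDH1 knockdown, 750 per well, RPMI/5% FBS. Exposure: 48 h at 37 °C following 2 h pre-incubation. Read: CellTiter-Glo luminescence; fitted concentration-response, curve class assigned.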
# Potency is read from the fitted curve at half-maximal effect; tags tell the direction and shape of the fitted curve.
SMILES,Potency,"activity, negative = toxicity"
COc1ccc2sc(-c3ccc(N(C)C)cc3)c(C#CCO)c2c1,"inconclusive [cytotoxic, single point]",
COCOc1ccc(C=O)cc1OCOC,,inactive: 1.58%
Cc1noc(C)c1S(=O)(=O)Nc1ccc2c(c1)C(=O)N([C@H](C)CO)C[C@H](C)[C@@H](CN(C)S(=O)(=O)c1ccccc1)O2,,inactive: 5.85%
CN1CCN(C(=O)/C=C/c2ccc([N+](=O)[O-])cc2)CC1,,inactive: 3.16%
CCn1cc(CN2CCC(n3nccc3NC(=O)c3ccccc3C)CC2)cn1,,inactive: -2.61%
CCc1nnc(NC(=O)c2ccc(S(=O)(=O)N3CCCC(C)C3)cc2)o1 (stereo not given),"inconclusive [cytotoxic, single point]",
COc1ccc(NC(=O)CNC(=O)c2sc3ccccc3c2Cl)c(OC)c1,"inconclusive [cytotoxic, single point]",
O=C(CCl)NN1C(=O)NC(c2ccccc2)(c2ccccc2)C1=O,active: 16.4 µM,
CCn1nc(C(=O)Nc2ccc(N3CCOCC3)cc2)c2ccccc2c1=O,"inconclusive [cytotoxic, single point]",
C=CC(=O)N1C/C(=C/c2ccc(F)cc2)C(=O)/C(=C\c2ccc(F)cc2)C1,active: 2.91 µM,
CC(c1ccccc1)C(NC(=O)OCC1c2ccccc2-c2ccccc21)C(=O)O (stereo not given),,inactive: -13.2%
CC(C)(C)c1nnc(N/N=C/c2cc(Br)ccc2O)n(N)c1=O,"inconclusive [cytotoxic, partial curve, poor fit]",
CC(=O)c1ccc(NC(=O)Nc2ccc(NS(=O)(=O)c3ccc(C)cc3)cc2)cc1,"inconclusive [cytotoxic, single point]",
COc1ccc(NS(=O)(=O)c2ccc(C)c(C(=O)NCc3ccccc3CN3CCCC3)c2)cc1,,inactive: -7.37%
O=C(Nc1nnc(-c2ccccc2)o1)c1cccc(S(=O)(=O)N2CCOCC2)c1,"inconclusive [cytotoxic, partial curve]",
CN1C(=O)c2ccc(C(=O)NCc3ccc4c(c3)OCO4)cc2C1=O,"inconclusive [cytotoxic, full curve, poor fit]",
CC(=O)CSc1nnc(-c2cnccn2)n1-c1ccccc1,"inconclusive [rising, partial curve, poor fit]",
COc1ccc2nc(N3CCN(C(=O)C4COc5ccccc5O4)CC3)sc2c1 (stereo not given),,inactive: -11.2%
CCCCCc1c(-c2cccc(F)c2)ncn1CCc1ccccc1OC,"inconclusive [cytotoxic, single point]",
COc1ccc(NC(=O)CSc2nnc(C3CCCCC3)n2N)cc1OC,,inactive: 18.3%
COc1ccc2c(c1)CCC/C2=N\Nc1nc(C(=O)NN)cs1,"inconclusive [cytotoxic, partial curve]",
CC(C)(C)CC(=O)NC(=S)Nc1ccccc1C(F)(F)F,"inconclusive [cytotoxic, single point]",
CC1(C)NC(=O)N(CCOc2cccc(Oc3ccccc3)c2)C1=O,"inconclusive [cytotoxic, partial curve]",
CCOC(=O)[C@]12CCCC=C1N(Cc1cccc3ccccc13)C(=O)[C@H](CC(=O)NCc1ccccc1)C2,"inconclusive [cytotoxic, single point]",

SMILES,Potency,"activity, negative = toxicity"
O=C(Nc1nnc([C@@H]2C[C@H](O)[C@@H](CO)O2)s1)Nc1ccc(F)cc1F,"inconclusive [rising, single point]",
CC(C)(CNC(=O)c1ccc([N+](=O)[O-])c(Cl)c1)CNC(=O)c1ccc([N+](=O)[O-])c(Cl)c1,"inconclusive [cytotoxic, single point]",
CN(C)S(=O)(=O)c1ccc(C(=O)Nc2nnc(Cc3ccccc3)s2)cc1,active: 23.1 µM,
CC(C)[C@H](NC(=O)N1CCn2c1nc1ccccc12)C(=O)NCc1ccc(F)cc1,,inactive: -13.5%
CCOC(=O)c1c(-c2cccc([N+](=O)[O-])c2)csc1NC(=O)C1CC1,"inconclusive [cytotoxic, single point]",
CCOc1cc(CN2CCC(CO)(Cc3cccc(C(F)(F)F)c3)CC2)ccc1OC,active: 20.6 µM,
C[n+]1ccc(/C=C/c2c[nH]c3ccc(F)cc23)cc1,"inconclusive [cytotoxic, single point]",
C/C(=N\NC(=O)c1c(Cl)c(C)nn1C)c1ccc(NC(=O)C2CCC2)cc1,active: 0.82 µM,
CC1(C(=O)NS(=O)(=O)Cc2ccccc2)CCN1C(=O)CCc1ccccc1 (stereo not given),"inconclusive [rising, single point]",
COc1cc(-c2noc(C)c2C(=O)NCCO)cc(OC)c1OC,,inactive: 8.07%
CCOC(=O)c1c(-c2ccc(C)cc2)csc1NC(=O)c1cc2ccccc2oc1=O,"inconclusive [cytotoxic, single point]",
C=CCn1c(O)c(N=NC(=S)Nc2cccc(OC)c2)c2ccccc21,,inactive: -26.1%
CC(C)(c1ccccc1)c1ccc(OCCCNCCO)cc1,active: 18.4 µM,
O=C(c1ccco1)N1CCN(C(c2ccccc2Cl)c2nnnn2Cc2ccco2)CC1 (stereo not given),,inactive: -7.02%
CC(NC(=O)COC(=O)/C=C/c1ccc(Cl)cc1)c1ccccc1 (stereo not given),,inactive: 1.94%
CCC(=O)c1ccc(OCc2ccc(C(=O)c3ccccc3)cc2)cc1,"inconclusive [cytotoxic, partial curve]",
C[C@]12c3[nH]c4ccc(Cl)cc4c3CCN1C(=O)[C@@H](CC(=O)NCc1cccc(C(F)(F)F)c1)C[C@@H]2C(=O)N1CCCCC1,,inactive: 5.76%
CCn1c2ccccc2nc2cc3c(cc21)c(Cl)c(=O)c1ccccc13,active: 20.6 µM,
Cc1ccc(NC(=O)NC(=O)N(C(C)C)S(=O)(=O)c2ccc(C)cc2)cc1,,inactive: 20.9%
O=C(Nc1ccc(Cl)c(Cl)c1)OCCNC(=O)c1cccc(Cl)c1,"inconclusive [cytotoxic, single point]",
O=C(Cc1ccc2c(c1)OCCO2)Nc1cc(C(F)(F)F)ccc1N1CCOCC1,,inactive: 4.33%
C[C@H](c1ccccc1)N1C[C@@H](COCc2ccccc2)Oc2cc(N3CCC[C@H]3CO)ccc2S1(=O)=O,"inconclusive [cytotoxic, single point]",
O=S(=O)(c1cccc2nonc12)N1CCN(c2ccccc2F)CC1,"inconclusive [cytotoxic, single point]",
CC(=O)O[C@H]1C[C@@]2(O)[C@@H](OC(=O)c3ccccc3)C3[C@@](C)([C@@H](O)C[C@H]4OC[C@@]34OC(C)=O)[C@@H](O)[C@H](OC(C)=O)C(=C1C)C2(C)C (stereo not given in full),"inconclusive [cytotoxic, single point]",

SMILES,Potency,"activity, negative = toxicity"
COc1ccc(-c2csc(NC(=O)c3ccccc3NS(=O)(=O)c3ccc(C)cc3)n2)cc1,"inconclusive [cytotoxic, partial curve]",
O=C1C=CC(=O)N1CCNc1ncc(C(F)(F)F)cc1Cl,active: 23.1 µM,
Cc1ccc(C(=O)Nc2ccc(Cl)cn2)cc1,active: 10 µM,
COc1cccc(Nc2nc(C)nc3c2oc2ccccc23)c1,"inconclusive [cytotoxic, single point]",
Cc1nc2c(ccc3c([N+](=O)[O-])cccc32)c(C)c1C,,inactive: -0.0253%
COC(=O)[C@]1(C)N[C@H](c2ccc(-c3ccccc3)cc2)[C@@H]2C(=O)N(C)C(=O)[C@@H]21,,inactive: 13.9%
O=C(Nc1ccc2c(c1)OCO2)c1cc(-c2ccncc2)nc2ccccc12,active: 18.4 µM,
O=C(NC1CCCC1)C1C(c2ccccc2)=Nc2ccccc2N1C(=O)c1cc(Cl)cc(Cl)c1 (stereo not given),,inactive: -2.83%
N/C(=N\c1nc2ccccc2o1)NC(=O)c1ccccc1F,,inactive: 7.51%
CC(C)N(C(=O)[C@H]1C[C@H](CC(=O)NCC23CC4CC(CC(C4)C2)C3)C(=O)N2CCc3c([nH]c4ccc(Cl)cc34)[C@]12C)C(C)C,"inconclusive [cytotoxic, single point]",
CC1=Nn2c(nnc2-c2cc(-c3ccccc3)n[nH]2)SC1,,inactive: 0.245%
CCN(CC)CCN(C(=O)/C=C/c1cccs1)c1nc2ccc(F)cc2s1,,inactive: -9.56%
COc1ccc(-c2cc(-c3c(O)c(OC)c4occc4c3OC)[nH]n2)cc1,"inconclusive [cytotoxic, single point]",
CC(C)(C)c1ccc(C(=O)Nc2ccccc2NC(=O)c2ccco2)cc1,"inconclusive [cytotoxic, partial curve]",
CN(C)S(=O)(=O)c1ccc2oc(SCC(=O)c3c(N)n(C4CC4)c(=O)[nH]c3=O)nc2c1,,inactive: 0%
CCOc1ccc(/C=N/Nc2cc(N3CCOCC3)ncn2)c(O)c1,active: 2.31 µM,
C=CCn1c(C)cc(C2=NNC(=NCC)SC2)c1C,"inconclusive [cytotoxic, single point]",
CCN(CC)c1ncnc2c1ncn2Cc1c(Cl)cccc1Cl,"inconclusive [cytotoxic, single point]",
CC1(C(=O)NCc2ccc(F)c(F)c2)Cc2c(-c3cccc(C(N)=O)c3)ccnc2O1 (stereo not given),active: 10.3 µM,
OC[C@@H]1CN(Cc2ccc(F)cc2)C[C@H](n2cnc3c(N4CCN(c5ccccc5)CC4)ncnc32)O1,"inconclusive [cytotoxic, single point]",
CC1(C(=O)NCCc2c[nH]c3ccccc23)CCN1Cc1ccccc1OC(F)F (stereo not given),"inconclusive [cytotoxic, full curve]",
O=C(CSc1ccccc1)Nc1nc2ccccc2[nH]1,"inconclusive [cytotoxic, single point]",

# From PubChem BioAssay AID686971 (National Center for Advancing Translational Sciences (NCATS), 2013)
